The supplement of paper PMC9433436
± gives the standard deviation of the averaged measurements. Whole data set: some 4,100 sequences, median “relative kcat/Km (krel) vs genomic leader AAAGAU” near 1.7, cut for the highest 2% near 6.5. The list shows a part of the results, in another mix than the full data.

Target: T1, E. coli RNase P holoenzyme (M1 P RNA + rnpA protein) (UniProt P0A7Y8)
T1 sequence: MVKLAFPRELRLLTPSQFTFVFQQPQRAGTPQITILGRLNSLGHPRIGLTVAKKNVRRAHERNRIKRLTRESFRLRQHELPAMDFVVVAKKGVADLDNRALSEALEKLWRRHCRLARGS
Experiment: relative kcat/Km (krel) vs genomic leader AAAGAU (relative (reference leader = 1)); higher = faster RNase P cleavage
Description: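 HTS-Kin: a pool of ptRNA-Met (21C construct) with all 4096 combinations of 5' leader nucleotides N(-6) to N(-1) was processed in vitro by E. coli RNase P (P RNA + rnpA/C5 protein) under multiple-turnover conditions at 37 C, pH 8, 17.5 mM MgCl2. Residual substrate was Illumina-sequenced at several fractions reacted, and relative kcat/Km (krel) was computed by internal competition kinetics, calibrated to the genomic leader (AAAGAU = 1). The listed hexamer is the varied N(-6)..N(-1) leader (DNA letters), and it sits between a fixed 5' stem-loop flank (GCAUGCACGAAAGUGCGUGCUAUGAA) and the mature tRNA-Met starting GGCUACGUAGCUCAGUUGG. Two technical replicates are averaged.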

[1] = fraction of substrate reacted: ~9-10% (9.79% repeat 1, 9.1% repeat 2)
[2] = fraction of substrate reacted: ~13-16% (15.68% repeat 1, 13.17% repeat 2)
[3] = fraction of substrate reacted: ~26-29% (28.66% repeat 1, 26.4% repeat 2)

Sequence	relative kcat/Km [1]	relative kcat/Km [2]	relative kcat/Km [3]
ATACAT	2.77 ± 0.72	3.38 ± 0.47	4.87 ± 2.1
GTTGAG			1.15 ± 0.24
TAGGCC	1.33 ± 1.1	1.36 ± 0.31	1.35 ± 0.44
ATTAAC	2.63 ± 0.68	3.17 ± 0.4	4.3 ± 1.9
TTTCGG			0.932 ± 0.27
AGATCG		0.602 ± 0.19	1.82 ± 0.53
TATAGC	2.28 ± 0.44	3.41 ± 1.1	4.77 ± 2.5
ATTAAG		1.45 ± 0.17	2.73 ± 0.5
GGGTAC	0.384 ± 0.092	0.982 ± 0.8	1.22 ± 0.74
ACGAGG	0.906 ± 0.9		0.796 ± 0.2
CGCGAG			2.26 ± 0.36
TAATCT	1.87 ± 1.1	3.08 ± 0.23	4.22 ± 1.6
CCTTGG	1.01 ± 0.43		0.75 ± 0.38
AACAGA	3.71 ± 2.3	4.083 ± 0.036	5.65 ± 2.1
CCCGTA	3 ± 0.3	3.06 ± 1.1	4.23 ± 1.7
GAGGGT			1.44 ± 0.023
CTACGA	1.44 ± 0.19	2.46 ± 0.98	3.49 ± 1.2
AACAAA	3.32 ± 2.3	3.9 ± 0.11	5.24 ± 1.1
CCCACT	1.87 ± 1.1	1.27 ± 0.14	2.79 ± 0.067
TTAGAG		1 ± 0.043	2.33 ± 0.41
CGCCTT	2.2 ± 0.21	2.27 ± 0.5	4.4 ± 2.4
CGATCA	0.578 ± 0.073	1.46 ± 0.7	1.93 ± 0.13
TCCACA	3.82 ± 1.2	4.26 ± 0.19	5.84 ± 2.4

Sequence	relative kcat/Km [1]	relative kcat/Km [2]	relative kcat/Km [3]
TCCTCC	3.65 ± 1.8	4.58 ± 1.2	6.57 ± 2.7
TGACTA	1.37 ± 0.11	1.68 ± 0.13	2.45 ± 1.1
TGTTGA	2.15 ± 0.44	3.32 ± 1.3	5.59 ± 2.1
TTCGCC	4.66 ± 1.2	6.09 ± 1.6	9.48 ± 3.8
TGATAA	3.27 ± 0.52	4.18 ± 0.85	5.68 ± 2.5
GAAGAG	1.6 ± 0.85		1.68 ± 0.19
CCAAGC	1.27 ± 0.25	1.99 ± 0.83	1.86 ± 0.39
GCAGAT	1.47 ± 0.15		1.32 ± 0.4
GTCCAT	4.26 ± 0.8	6.41 ± 1.5	
ACAGGT			1.82 ± 1
TCGAGG	0.256 ± 0.25		1.28 ± 0.41
GAAAGG	1.01 ± 0.72		0.673 ± 0.51
TAACCC	0.94 ± 0.71	1.128 ± 0.0073	1.47 ± 0.21
ATAGAA	1.63 ± 0.45	2.53 ± 0.21	3.41 ± 1.1
TCGGGG			0.852 ± 0.55
GGACCT	1.27 ± 0.28	1.38 ± 0.52	1.91 ± 0.91
AACGGT			3.55 ± 2.4
CATGCA	0.899 ± 0.83	0.687 ± 0.61	0.795 ± 0.12
TATACA	1.36 ± 0.29	2.13 ± 0.035	3.02 ± 1.8
ACGGGC		1.13 ± 0.13	
TTCATC	4.42 ± 1.8	5.94 ± 0.79	
CAGTTG			0.967 ± 0.11
CCATGC	1.28 ± 0.52	1.27 ± 0.065	2.07 ± 0.2

Sequence	relative kcat/Km [1]	relative kcat/Km [2]	relative kcat/Km [3]
GATATG		0.649 ± 0.13	1.97 ± 0.025
GTCCCC	2.87 ± 2.5	4.17 ± 0.82	5.29 ± 1.4
CACAAA	3.35 ± 0.11	4.93 ± 1.2	6.59 ± 2.9
TACCCC	2.87 ± 0.45	3.43 ± 0.39	4.46 ± 2.2
AACCAA	2.19 ± 1.5	2.84 ± 0.51	3.69 ± 1
CTACCG	0.197 ± 0.063		0.611 ± 0.1
GTTTAA	3.62 ± 0.62	4.49 ± 0.5	6.31 ± 3
AAAGTC	0.885 ± 0.27	1.31 ± 0.47	1 ± 0.04
GGGATT		1.14 ± 0.67	1.57 ± 0.97
AGATAT	2.81 ± 0.29	4.18 ± 0.57	5.87 ± 2.8
AACCTA	2.59 ± 0.77	2.32 ± 0.46	2.95 ± 1
GCAAGA		1.41 ± 0.34	1.56 ± 0.12
GCCTCG	1.167 ± 0.0063	0.682 ± 0.082	1.98 ± 0.34
CGCATC	2.76 ± 1.9	2.73 ± 0.72	4.28 ± 1.2
ACTCCA	0.963 ± 0.67	1.2 ± 0.18	1.454 ± 0.011
GGAAAC	1.99 ± 1.4	1.61 ± 1.1	2.23 ± 0.17
AAAGAA	0.874 ± 0.68	1.13 ± 0.55	1.33 ± 0.36
ACTATA	2.22 ± 0.72	1.75 ± 0.13	2.59 ± 0.73
TGCATT	0.949 ± 0.79	1.93 ± 1.2	2.68 ± 1.7
TATAAA	2.45 ± 1.2	2.7 ± 0.44	5.1 ± 2.2
GATGTA	1.79 ± 0.92	0.859 ± 0.61	1.28 ± 0.19
AGTCAC	4.5 ± 2.3	4.987 ± 0.032	7.1 ± 2.9
GTATGG		0.253 ± 0.21	1.01 ± 0.7

Sequence	relative kcat/Km [1]	relative kcat/Km [2]	relative kcat/Km [3]
AATAGT			1.9 ± 1.9
GAAAAA	1.1 ± 0.54	0.792 ± 0.45	2.06 ± 0.83
TTAGAC	4.11 ± 3	3.64 ± 0.28	4.98 ± 1.7
CCCACC	3.4 ± 0.23	2.73 ± 0.96	4.44 ± 1.5
TGGATT	0.769 ± 0.44	1.29 ± 0.93	1.47 ± 1.3
ATAGCC	2.13 ± 0.14	1.45 ± 0.049	2.11 ± 1
ATGCTC	1.43 ± 0.28	1.17 ± 0.12	1.29 ± 0.029
ACCCCA	2.32 ± 0.72	2.4 ± 0.059	2.56 ± 1.2
AGGTAG		0.269 ± 0.23	1.16 ± 0.2
CCGCCC	2.03 ± 0.63	2.23 ± 0.37	2.86 ± 0.96
TCTTAG	2.09 ± 1.6	1.962 ± 0.0029	3.5 ± 0.73
GACGTG	1.12 ± 1.1	0.43 ± 0.042	1.1 ± 0.3
AGAACA	2.34 ± 1.9	2.06 ± 0.13	2.48 ± 0.4
GCGAGT	0.771 ± 0.3		0.716 ± 0.32
ACAACC	2.09 ± 1.5	1.34 ± 0.51	1.66 ± 0.25
CTTTTT	2.99 ± 1.5	3.27 ± 0.75	4.46 ± 1.3
CTACCC	2.18 ± 1.1	1.54 ± 0.49	1.85 ± 0.57
TGGAGT			1.17 ± 1.1
TGCTCT	0.944 ± 0.33	1.02 ± 0.37	1.5 ± 0.59
CGAGTA			1.1 ± 0.25
CTAGCA		0.948 ± 0.55	1.05 ± 0.61
TCGTAC	4.21 ± 1.1	5.11 ± 1.9	7.91 ± 3.5
CGTTAC	3.84 ± 0.72	5.28 ± 1.9	7.82 ± 2.9

Sequence	relative kcat/Km [1]	relative kcat/Km [2]	relative kcat/Km [3]
CTGCAA	1.614 ± 0.0022	2.09 ± 1	2.05 ± 0.78
TCCTGC	4.64 ± 1.6	5.78 ± 1.5	
TATTAC	3.92 ± 1.1	5.68 ± 0.93	7.86 ± 3.4
AGGTAT	1.3 ± 0.69	1.49 ± 0.76	1.62 ± 1
TTGATG			1.21 ± 0.41
TGAGAA	2.19 ± 0.97	2.44 ± 0.68	3.67 ± 1.5
TTTCAC	3.76 ± 1.6	4.95 ± 0.89	
CATTAA	3.66 ± 2.4	4.11 ± 0.12	5.92 ± 2
GAACCC	1.33 ± 0.29	1.9 ± 0.13	1.77 ± 0.62
TTCTTA	4.55 ± 1.2	5.9 ± 0.59	7.98 ± 3.2
AGGCCA	0.698 ± 0.37	0.346 ± 0.19	0.612 ± 0.07
CAGCGA	1.67 ± 0.34	1.53 ± 0.28	2.81 ± 1.2
GGTAAC	1.47 ± 0.022	1.618 ± 0.0045	2.64 ± 1.5
ATAAGC	2.05 ± 1.6	2.29 ± 0.24	2.7 ± 1
TGCCGT			1.84 ± 1.4
GAATGC	2.02 ± 0.32	2.68 ± 0.59	3.53 ± 1.4
GGTCAG	0.583 ± 0.24	0.751 ± 0.55	2.25 ± 0.64
CCAAAA	1.12 ± 0.12	0.652 ± 0.028	1.4 ± 0.21
GGAAAG			2.16 ± 0.072
CTTATA	2.43 ± 1.2	2.02 ± 0.082	3.01 ± 0.78
GTTTGG	0.235 ± 0.041		0.651 ± 0.1
CCTAGT	0.659 ± 0.3	1.51 ± 0.24	1.57 ± 1.6
TAACCA		1.18 ± 0.99	1.43 ± 0.052

Sequence	relative kcat/Km [1]	relative kcat/Km [2]	relative kcat/Km [3]
TGACGC	2.38 ± 0.66	2.52 ± 0.32	3.83 ± 1.3
CCAAAT	1.85 ± 0.057	1.78 ± 0.41	2.23 ± 0.56
GTCCAA	3.74 ± 1.3	4.92 ± 0.95	7.96 ± 3
GCCGCG	0.48 ± 0.019		1.9 ± 0.086
AACCGT			1.29 ± 1.1
CAACTC	1.43 ± 0.42	1.08 ± 0.39	1.37 ± 0.27
TTGAGC	1.16 ± 0.28	1.24 ± 0.71	1.47 ± 0.22
GCAAGC	1.46 ± 0.85	1.14 ± 0.044	1.69 ± 0.025
CTCAGC	4.51 ± 1.9	5.37 ± 1.6	
AATACT	1.38 ± 0.65	1.67 ± 0.028	2.3 ± 0.83
CGCGGT			1.83 ± 1.4
CCGTAC	3.58 ± 1	4.22 ± 0.54	5.69 ± 2.3
AGGACC	1.31 ± 0.32	1.03 ± 0.23	0.684 ± 0.07
GAGCAT	2.28 ± 0.55	2.35 ± 0.13	3.52 ± 1.2
GTATTA	1.82 ± 1.1	2.58 ± 0.058	3.31 ± 1.3
CAGGCA	0.507 ± 0.12	0.66 ± 0.32	0.524 ± 0.2
GGACAT	1.66 ± 0.023	2.29 ± 0.62	3.54 ± 1.4
GGCAGG			0.714 ± 0.04
